Laboratory results taken from PubChem BioAssay AID463173 (ICCB-Longwood Screening Facility, Harvard Medical School, 2010).
About 4,300 (8.3%) of roughly 52,000 compounds were called active. Cut-off read from the data, not from the text of the source: active = survival mostly below about 52% (no sharp cut-off); inactive = mostly above about 56%. The list shows a part of the results.

What follows are compounds tested on DeltatarO mutant (assay: growth inhibition of S. aureus wild type versus tarO mutant, primary screen, teichoic acid synthesis inhibitors, RN4220, OD600 (AID 463173)). Conditions: OD600, 18 h, stronger effect = lower value, screened at 18.75 µg/mL (by protocol).

SMILES | survival
CCN(CC)CCCNC(=O)c1ccc2c(Cl)c3c(nc2c1)CCCC3 | inactive: 105%
CCOC(=O)Cn1c(=O)n(-c2ccccc2OC)c2nc(-c3ccc(C(C)C)cc3)nc(C(N)=O)c21 | inactive: 86%
O=C1C(=Cc2ccc3c(c2)OCO3)C(=O)c2ccccc21 | inactive: 64%
CC(C)CC1Nc2ccc(C(=O)NCCCOC(C)C)cc2NC1=O (configuration not stated) | inactive: 65%
COc1ccc(C(=O)NCCn2cc(SCC(=O)Nc3ccc4c(c3)OCCO4)c3ccccc32)cc1OC | inactive: 84%
CCOC(=O)c1c(Oc2ccc(C(C)=O)cc2)nnc(-c2ccccc2)c1-c1ccccc1 | inactive: 67%
CC(C)NC(=O)Cn1ccc2ccc(C#N)cc21 | inactive: 86%
Cn1c(SCC(=O)Nc2nc3ccccc3s2)ncc(C(=O)Nc2ccc(F)cc2)c1=O | inactive: 67%
COc1cccc(C(=O)Nc2cccc(C(=O)OCc3cc(=O)n4c(C)csc4n3)c2)c1 | inactive: 128%
NS(=O)(=O)c1ccc2nc(NC(=O)COc3ccc(Cl)cc3Cl)sc2c1 | inactive: 89%
COCCNC(=O)c1ccc2c(c1)N=C(C)c1cc(C)ccc1S2 | inactive: 69%
CCOC(=O)c1c(-c2cccs2)csc1NC(=O)C(F)(F)F | inactive: 70%
Cc1c(C(=O)NC(C)c2ccccc2)sc2nc3n(c(=O)c12)CCCC3 (configuration not stated) | inactive: 87%
CCOC(=O)COc1ccc(C)cc1C(=O)c1ccn2nc(-c3ccc(F)cc3)cc2n1 | inactive: 69%
CC1CCN(C(=O)c2cccc(NC(=O)c3nsc4ccccc34)c2)CC1 | inactive: 92%
COc1ccc2c(CNCc3cccs3)c(C(=O)O)n(Cc3ccccc3F)c2c1 | inactive: 96%
O=C(NCc1ccccc1)c1ccc2oc(=O)n(Cc3ccccc3)c2c1 | inactive: 72%
C=CCc1cccc2cc(NC(C)=O)c(=O)oc12 | inactive: 76%
CCCN1C2=C(C(=O)CCC2)C(c2ccc(F)cc2)C2=C1c1ccccc1C2=O (configuration not stated) | inactive: 89%

SMILES | survival
COc1ccc(CC(=O)N2CCc3cc(OC)c(OC)cc3C2COc2ccc(F)cc2)cc1OC (configuration not stated) | inactive: 75%
CN(C)c1ccc(NC(=O)CSC2=Nc3ccccc3C3=NC(CCC(=O)NCc4cccs4)C(=O)N23)cc1 (configuration not stated) | inactive: 75%
COc1ccccc1NC(=O)Cn1c(=O)c(CNc2ccc(C)cc2)cc2cc3c(cc21)OCCO3 | inactive: 58%
Cc1cccc(N2C(=O)CSC23C(=O)N(CC(=O)NCc2ccccc2Cl)c2ccccc23)c1 (configuration not stated) | inactive: 116%
COc1ccc(CCNC(=O)C(=O)NCC(c2ccco2)S(=O)(=O)c2ccccc2)cc1 (configuration not stated) | inactive: 82%
COCCCn1c(SCC(=O)N(Cc2ccco2)c2nccs2)nc2sc3c(c2c1=O)CCC3 | inactive: 83%
COc1ccc(-c2nnc3n2N(C(C)=O)C(c2ccc(Cl)c(Cl)c2)=C(C(C)=O)S3)cc1 | active: 20%
COc1ccc(N2CC(C(=O)NCc3nnnn3-c3ccc(C)c(C)c3)CC2=O)cc1 (configuration not stated) | inactive: 69%
Cc1cccc(NC(=O)c2ccc3c(c2)CCN3S(=O)(=O)c2ccccc2)c1C | active: 38%
Cc1ccc(NC(=O)Nc2sc3nc4n(c(=O)c3c2C)CCC(C)CC4)c(Cl)c1 (configuration not stated) | inactive: 110%
COc1cccc(OC)c1C(=O)Nc1nc2c(s1)CCc1ccccc1-2 | inactive: 60%
Cc1nc2c(c(C)c1CCC(=O)NCc1ccc(Cl)cc1)c(=O)n(C)c(=O)n2C | inactive: 91%
CC(CNC(=O)CN1C(=O)c2cccnc2Oc2ccc(Cl)cc21)c1ccccc1 (configuration not stated) | inactive: 90%
COC(=O)c1ccc(NC(=O)N2CCN(Cc3cc(=O)n4nc(-c5ccc(C)cc5)sc4n3)CC2)cc1 | inactive: 89%
O=C1C2C3C=CC(C3)C2C(=O)N1c1ccc(Cl)cc1 (configuration not stated) | inactive: 70%
O=C(NC12CC3CC(CC(C3)C1)C2)N1CCC(O)(c2ccc3c(c2)OCO3)CC1 | inactive: 81%
CC1SC2(C(=O)Nc3ccccc32)N(c2ccccc2)C1=O (configuration not stated) | inactive: 94%
COc1ccc2cc3cc(C(=O)N4CCN(c5ccccc5F)CC4)oc3nc2c1 | inactive: 53%
O=c1[nH]c(=O)n(C2CCCCC2)c(O)c1C1=Nc2ccccc2SC(c2ccc(Cl)cc2)C1 (configuration not stated) | inactive: 50%

SMILES | survival
COc1cccc(C2=CC(c3cc(Br)ccc3F)n3nnnc3N2)c1 (configuration not stated) | active: -2%
O=C(CCc1ccccc1)NCc1ccc2c(c1)OCO2 | inactive: 57%
CCCOc1ccc(C2CC(=O)Nc3c2c(C)nn3-c2nncc(-c3cccc(OC)c3)n2)cc1OC (configuration not stated) | inactive: 46%
CCCS(=O)(=O)N1CC(=O)N(c2ccc(C)cc2)C(C)(C(=O)NC2CCCCCC2)C1 (configuration not stated) | inactive: 75%
O=C(NCCc1ccccc1Cl)c1ccc2c(=O)n(-c3ccccc3)c(=O)[nH]c2c1 | inactive: 85%
CCOc1ccccc1CN1CCc2nc(Nc3ccc4c(c3)OCCO4)ncc2C1 | inactive: 62%
O=C(O)c1cccc(Nc2nc(-c3ccccn3)cs2)c1 | inactive: 80%
COCC(=O)NCc1ccc2c(c1)OCO2 | inactive: 104%
O=C(NCCN1CCOCC1)c1ccc2c(c1)OCCO2 | inactive: 93%
Cc1ccc(/C=C/c2onc(C)c2S(=O)(=O)N2CCC(C(=O)N3CCN(c4ccccc4F)CC3)CC2)cc1 | inactive: 116%
Cc1cccc(-n2c(C)nc3cc(C(=O)NCCC4=CCCCC4)ccc32)c1 | inactive: 71%
COc1ccc(NC(=O)CCNS(=O)(=O)c2cccc3nsnc23)cc1Cl | inactive: 63%
CC(C)(C)C(=O)NC1CCN(S(=O)(=O)c2ccc(C(F)(F)F)cc2)CC1 | inactive: 96%
CNC(=O)c1c(O)c2cc(OC)c(OC)cc2[nH]c1=O | inactive: 99%
CCn1c(=O)cc(OCC(=O)N2CCN(c3ccc(OC)cc3)CC2)c2ccccc21 | inactive: 71%
Cc1cccc(-n2ccnc2SCC(=O)Nc2cccc3ccccc23)c1C | inactive: 78%
CCOc1ccc(Nc2nnc(-n3nc(C)cc3C)c3ccccc23)cc1 | inactive: 132%
COc1ccc(C(=O)Nc2ccc3c(c2)CCCN3C(=O)c2cccs2)c(OC)c1 | inactive: 87%
COc1cc(OC)c(NC(=O)N2CCCn3nc(C)cc32)cc1Cl | active: 47%
